Source: patent publication US20240140957A1, “BRIDGED COMPOUNDS AS KRAS G12D INHIBITOR AND DEGRADER AND THE USE THEREOF” (BeiGene Switzerland GmbH, priority 2021, published 2024)

Molecular target: KRAS G12D HiBiT in HEK293 KRAS-G12D NanoLuc cell pool (Homo sapiens, UniProt P01116, G12D)
Test: KRAS G12D NanoLuc Assay
Details: for Dmax: HEK293, read-out: KRAS G12D NanoLuc Dmax; for DC50: read-out: KRAS G12D NanoLuc DC50, HEK293 KRAS-G12D NanoLuc cell pool, 24 h compound treatment
Protocol: HEK293 KRAS-G12D) NanoLuc cell pool was used in this study. The cells were stable expressing KRAS G12D HiBiT and LgBiT. Cells were maintained in DMEM supplemented with 1000 fetal bovine serum (Thermo Fisher), 50 units/mL penicillin and streptomycin (Thermo Fisher) and kept at 37° C. in a humidified atmosphere of 5% CO2 in air. Cells were reinstated from frozen stocks that were laid down within 30 passages from the cell pool was constructed. 20000 cells per well were seeded a 96-well White with Clear Flat bottom plate for 4 h. Cells were treated with a 10-point dilution series. The final compound concentration is from 0 to 10 μM. After 24 h compound treatment, added 20 μL of CellTiter-Fluor reagent (Promega) to plates, shook for 2 min, incubated at least 30 min in 37° C. Added 25 μL of NanoGlo Live cell reagent (Promega) to the same plate. Shook by mini-shaker for 5 min. Measure Luminescence and Fluorescence (380-400 nmEx/505 nmEm) signals immediately using a PHERAstar FSX reader (BMG Labtech). DC50 determination was performed by filling the curve of percent inhibition versus the log of the inhibitor concentration using Excel and GraphPad Prism 8.

Cc1ncsc1-c1ccc([C@H](C)NC(=O)[C@@H]2C[C@@H](O)CN2C(=O)[C@@H](NC(=O)COC2CCN(CC(C)Oc3nc(N4CC5CCC(C4)N5)c4cc(Cl)c(-c5ccc(F)c6sc(N)nc56)c(F)c4n3)CC2)C(C)(C)C)cc1 (stereo partly drawn) [Example E44, (2S,4R)-1-((2S)-2-(2-((1-(2-((7-(2-amino-7-fluorobenzo[d]thiazol-4-yl)-4-(3,8-diazabicyclo[3.2.1]octan-3-yl)-6-chloro-8-fluoroquinazolin-2-yl)oxy)propyl)piperidin-4-yl)oxy)acetamido)-3,3-dimethylbutanoyl)-4-hydroxy-N—((S)-1-(4-(4-methylthiazol-5-yl)phenyl)ethyl)pyrrolidine-2-carboxamide]
Dmax: 65%
DC50: 975 nM

Cc1cc(N)nc(-c2c(Cl)cc3c(N4CC5CCC(C4)N5)nc(OC[C@@H]4CCCN4CCCCCCC(=O)N[C@H](C(=O)N4C[C@H](O)C[C@H]4C(=O)N[C@@H](C)c4ccc(-c5scnc5C)cc4)C(C)(C)C)nc3c2F)c1C(F)(F)F [Example E48, (2S,4R)-1-((2S)-2-(7-((2S)-2-(((7-(6-amino-4-methyl-3-(trifluoromethyl)pyridin-2-yl)-4-(3,8-diazabicyclo[3.2.1]octan-3-yl)-6-chloro-8-fluoroquinazolin-2-yl)oxy)methyl)pyrrolidin-1-yl)heptanamido)-3,3-dimethylbutanoyl)-4-hydroxy-N—((S)-1-(4-(4-methylthiazol-5-yl)phenyl)ethyl)pyrrolidine-2-carboxamide]
Dmax: 77%
DC50: 642 nM

Cc1ncsc1-c1ccc([C@H](C)NC(=O)[C@@H]2C[C@@H](O)CN2C(=O)[C@@H](NC(=O)CCCCCCN2CCC[C@H]2COc2nc(N3C4CCC3CNC4)c3cc(Cl)c(-c4ccc(F)c5sc(N)nc45)c(F)c3n2)C(C)(C)C)cc1 [Example E45, (2S,4R)-1-((2S)-2-(7-((2S)-2-(((7-(2-amino-7-fluorobenzo[d]thiazol-4-yl)-4-(3,8-diazabicyclo[3.2.1]octan-8-yl)-6-chloro-8-fluoroquinazolin-2-yl)oxy)methyl)pyrrolidin-1-yl)heptanamido)-3,3-dimethylbutanoyl)-4-hydroxy-N—((S)-1-(4-(4-methylthiazol-5-yl)phenyl)ethyl)pyrrolidine-2-carboxamide]
Dmax: 73%
DC50: 824 nM

Cc1ncsc1-c1ccc([C@H](C)NC(=O)[C@@H]2C[C@@H](O)CN2C(=O)[C@@H](NC(=O)CCCC2CCN(C[C@H](C)Oc3nc(N4CC5CCC(C4)N5)c4cc(Cl)c(-c5ccc(F)c6sc(N)nc56)c(F)c4n3)CC2)C(C)(C)C)cc1 [Example E47, (2S,4R)-1-((2S)-2-(4-(1-((2S)-2-((7-(2-amino-7-fluorobenzo[d]thiazol-4-yl)-4-(3,8-diazabicyclo[3.2.1]octan-3-yl)-6-chloro-8-fluoroquinazolin-2-yl)oxy)propyl)piperidin-4-yl)butanamido)-3,3-dimethylbutanoyl)-4-hydroxy-N—((S)-1-(4-(4-methylthiazol-5-yl)phenyl)ethyl)pyrrolidine-2-carboxamide]
Dmax: 74%
DC50: 622 nM

Cc1ncsc1-c1ccc([C@H](C)NC(=O)[C@@H]2C[C@@H](O)CN2C(=O)[C@@H](NC(=O)CCCCCCN2CCC[C@H]2COc2nc(N3CC4CCC(C3)N4)c3cc(Cl)c(-c4ccc(F)c5sc(N)nc45)c(F)c3n2)C(C)(C)C)cc1 [Example E46, (2S,4R)-1-((2S)-2-(7-((2S)-2-(((7-(2-amino-7-fluorobenzo[d]thiazol-4-yl)-4-(3,8-diazabicyclo[3.2.1]octan-3-yl)-6-chloro-8-fluoroquinazolin-2-yl)oxy)methyl)pyrrolidin-1-yl)heptanamido)-3,3-dimethylbutanoyl)-4-hydroxy-N—((S)-1-(4-(4-methylthiazol-5-yl)phenyl)ethyl)pyrrolidine-2-carboxamide]
Dmax: 79%
DC50: 432 nM
